In the antibiotic and cytotoxicity screens of Wong et al. (2023):
The list shows a part of the results.

How the values were obtained:
HSkMC = human skeletal muscle cells; test: cytotoxicity call (relative viability < 0.9); settings: 10 µM
HepG2 = test: cytotoxicity call (relative viability < 0.9); settings: 10 µM
S. aureus RN4220 = test: growth inhibition call (relative growth <= 0.2); settings: 50 µM

SMILES	cytotoxicity call (HSkMC)	cytotoxicity call (HepG2)	growth inhibition call (S. aureus RN4220)
CC(=O)Nc1ccc(C(=O)O)cc1	inactive	inactive	inactive
CC(C)NC(=O)N[C@H]1C=C[C@@H](CC(=O)O)O[C@@H]1CO	inactive	inactive	inactive
CO[C@@H]1CN(C)C(=O)c2ccc(NC(=O)C3CC3)cc2OC[C@H](C)N(C(=O)CN2CCOCC2)C[C@H]1C	inactive	inactive	inactive
Cc1noc(C)c1NC(=O)N(C)C[C@H]1Oc2ccc(NC(=O)C3CC3)cc2C(=O)N([C@@H](C)CO)C[C@H]1C	inactive	inactive	inactive
O=C(C[C@@H]1CC[C@H](NC(=O)Nc2ccc3c(c2)OCO3)[C@H](CO)O1)NCCCN1CCOCC1	inactive	inactive	inactive
COc1ccc([Si](C)(C)[C@H]2[C@H](CCn3cc([C@H](O)c4ccccc4)nn3)O[C@@]3(C(=O)N(C)c4c(Br)cc(C)cc43)[C@@H]2C)cc1	inactive	active	inactive
C#Cc1ccc([C@H]2C=C(C(=O)N3CCOCC3)O[C@@H](OCCCCOC(=O)NCCCCCC(=O)NO)C2)cc1	inactive	inactive	inactive
C[C@H]1CN([C@@H](C)CO)C(=O)c2cc(NS(C)(=O)=O)ccc2O[C@H]1CN(C)S(=O)(=O)c1cccs1	inactive	inactive	inactive
CNC[C@H]1OCCCC[C@@H](C)Oc2ccc(NC(=O)c3ccncc3)cc2C(=O)N([C@@H](C)CO)C[C@H]1C	inactive	inactive	inactive
C[C@H](CO)N1C[C@H](C)[C@@H](CN(C)S(=O)(=O)c2ccc3c(c2)OCCCO3)OCc2cn(nn2)CCCC1=O	inactive	inactive	inactive
CC(C)NC(=O)NCC[C@@H]1CC[C@H](NC(=O)CN(C)C)[C@@H](CO)O1	inactive	inactive	inactive
Cc1noc(C)c1S(=O)(=O)N(C)C[C@H]1Oc2ccc(NC(=O)C3CCCCC3)cc2CC(=O)N([C@H](C)CO)C[C@@H]1C	inactive	inactive	inactive
CO[C@H]1/C=C/C[C@H](C)[C@@H](C)S(=O)(=O)NC(=O)c2ccc3c(c2)N(C[C@@H]2CC[C@H]21)C[C@@]1(CCCc2cc(Cl)ccc21)CO3	active	inactive	inactive
C[C@H]1CN([C@@H](C)CO)C(=O)Cc2cc(NC(=O)Nc3ccc(C(F)(F)F)cc3)ccc2O[C@H]1CN(C)CC1CCCCC1	active	active	inactive
Cc1noc(C)c1S(=O)(=O)Nc1ccc2c(c1)C(=O)N([C@@H](C)CO)C[C@@H](C)[C@@H](CN(C)Cc1ccccc1)O2	inactive	inactive	inactive
O=C(CCCCCCC(=O)Nc1ccc([C@H]2C[C@H](c3ccccc3)O[C@H](c3ccc(Oc4ccccc4)cc3)O2)cc1)NO	active	inactive	inactive
CC(C)[C@H](NC(=O)[C@H](C)N(C)C)C(=O)N1CC[C@@H]2Oc3ccc(cc3)/C=C\NC(=O)[C@H](Cc3ccccc3)NC(=O)[C@H]21	inactive	inactive	inactive
CCOC(=O)N(C)C[C@H]1OCc2cn(nn2)CCCC(=O)N([C@H](C)CO)C[C@@H]1C	inactive	inactive	inactive
O=C(N[C@@H]1CC[C@@H](CC(=O)N2CCOCC2)O[C@H]1CO)c1ccccn1	inactive	inactive	inactive
Cc1ncc(CSSCc2cnc(C)c(O)c2CO)c(CO)c1O	inactive	inactive	inactive

SMILES	cytotoxicity call (HSkMC)	cytotoxicity call (HepG2)	growth inhibition call (S. aureus RN4220)
C[C@@H]1CN([C@H](C)CO)C(=O)c2cccc(NC(=O)Nc3ccccc3)c2O[C@H]1CN(C)Cc1ccc(C(F)(F)F)cc1	active	active	inactive
C[C@@H]1CN([C@H](C)CO)C(=O)Cc2cc(NC(=O)Cn3cnnn3)ccc2O[C@H]1CN(C)S(=O)(=O)c1ccccc1	inactive	inactive	inactive
CN(C)CCN1C[C@H]2OCCN(Cc3cnn(C)c3)[C@H]2C1	inactive	inactive	inactive
C[C@H]1CN([C@@H](C)CO)C(=O)Cc2cc(NC(=O)CCCN(C)C)ccc2O[C@@H]1CN(C)S(=O)(=O)c1cn(C)cn1	inactive	inactive	inactive
COCC(=O)N1CC(C)(C)c2cc(-c3csc(NC(=O)c4ccc(F)c(OC(F)(F)F)c4)n3)ccc21	inactive	inactive	inactive
CCC[C@@H](O)C#Cc1cnc2c(c1)C(=O)N([C@H](C)CO)C[C@H](C)[C@H](CN(C)S(=O)(=O)c1cccc(F)c1)O2	inactive	inactive	inactive
NC(=S)Nc1ccncc1	inactive	inactive	inactive
C[C@@H]1CN([C@H](C)CO)C(=O)c2cc(NC(=O)CCC(F)(F)F)ccc2O[C@@H](C)CCCCO[C@@H]1CN(C)S(=O)(=O)c1ccccc1	inactive	inactive	inactive
NC[C@@H]1CCCO1	inactive	inactive	inactive
C[C@@H]1CCCCO[C@@H](CN(C)S(=O)(=O)c2ccc(Cl)cc2)[C@H](C)CN([C@H](C)CO)C(=O)c2cc(NC(=O)Nc3ccc(C(F)(F)F)cc3)ccc2O1	inactive	inactive	inactive
O=C(CN1CCOCC1)NCC[C@H]1CC[C@@H](NC(=O)Nc2ccccc2)[C@H](CO)O1	inactive	inactive	inactive
C[C@@H]1CN([C@@H](C)CO)C(=O)c2cc(NS(=O)(=O)c3cccs3)ccc2O[C@@H](C)CCCCO[C@@H]1CN(C)C(=O)c1ccccc1	inactive	inactive	inactive
C[C@@H]1CN([C@@H](C)CO)C(=O)c2cc(NS(C)(=O)=O)ccc2O[C@@H](C)CCCCO[C@@H]1CN(C)Cc1ccc(C(F)(F)F)cc1	inactive	inactive	inactive
CCCCCN1CC=C[C@]23O[C@@H]4/C=C/CCC(=O)N(C)[C@H](C)[C@@H](c5ccccc5)OC(=O)[C@@H]4[C@H]2C(=O)N(c2ccccc2Cl)[C@@H]3C1=O	inactive	inactive	inactive
Cc1noc(C)c1S(=O)(=O)Nc1cccc2c1O[C@H](CN(C)Cc1ccc3c(c1)OCO3)[C@H](C)CN([C@@H](C)CO)C2=O	inactive	inactive	inactive
CC(C)(C)NC[C@@]1(CO)SC(N)=NC1=O	inactive	inactive	inactive
C[C@H]1CN([C@@H](C)CO)C(=O)c2cccc(NC(=O)Nc3ccc(F)cc3)c2O[C@H]1CN(C)Cc1ccc(C(=O)Nc2ccccc2N)cc1	inactive	active	inactive
Cc1noc(C)c1NC(=O)N(C)C[C@@H]1Oc2ccc(NC(=O)Cn3cnnn3)cc2C(=O)N([C@H](C)CO)C[C@@H]1C	inactive	inactive	inactive
Cc1noc(C)c1NC(=O)N(C)C[C@@H]1Oc2c(NS(=O)(=O)c3cn(C)cn3)cccc2C(=O)N([C@@H](C)CO)C[C@@H]1C	inactive	inactive	inactive
C[C@@H]1CCCCO[C@H](CN(C)S(=O)(=O)c2ccccc2)[C@@H](C)CN([C@@H](C)CO)C(=O)c2cc(NC(=O)Nc3ccc4c(c3)OCO4)ccc2O1	inactive	inactive	inactive

SMILES	cytotoxicity call (HSkMC)	cytotoxicity call (HepG2)	growth inhibition call (S. aureus RN4220)
Cc1noc(C)c1NC(=O)Nc1ccc2c(c1)C(=O)N([C@H](C)CO)C[C@@H](C)[C@H](CN(C)Cc1ccccc1)OCCCC[C@@H](C)O2	inactive	inactive	inactive
C[C@H](CO)N1C[C@H](C)[C@H](CN(C)C(=O)Nc2ccc(F)cc2)OCCCC[C@H](C)Oc2ccc(NC(=O)C3CC3)cc2C1=O	inactive	inactive	inactive
COC(=O)c1ccc2c(c1)NC(=O)C2	inactive	inactive	inactive
Cc1ccc(S(=O)(=O)Nc2ccc3c(c2)C(=O)N([C@@H](C)CO)C[C@@H](C)[C@@H](CN(C)Cc2ccc(Oc4ccccc4)cc2)O3)cc1	active	active	inactive
COC(=O)c1c2oc(c1C(=O)OC)C(=O)N[C@H](Cc1ccccc1)Cn1cc(nn1)[C@@H](Cc1ccccc1)NC(=O)N[C@H](COC(=O)NCCCCCC(=O)NO)CC2	inactive	inactive	inactive
O=C(C[C@H]1C[C@@H]2c3cc(NS(=O)(=O)c4ccc(F)cc4)ccc3O[C@@H]2[C@@H](CO)O1)NCCN1CCCCC1	inactive	inactive	inactive
Cn1ncc2c1CCCC2=O	inactive	inactive	inactive
CN(C)S(=O)(=O)Nc1cccc(N)c1	inactive	inactive	inactive
C[C@H](CO)N1C[C@H](C)[C@H](CN(C)CC2CC2)OCCCC[C@H](C)Oc2ccc(NC(=O)NC3CCCCC3)cc2C1=O	inactive	inactive	inactive
O=c1[nH]c2ccc(F)cc2nc1O	inactive	inactive	inactive
Cc1[nH]c(=O)[nH]c(=O)c1S(=O)(=O)N1CCC[C@H](C(=O)NCCc2c[nH]c3ccc(F)cc23)C1	inactive	inactive	inactive
C[C@H](O)C#Cc1cnc2c(c1)C(=O)N([C@H](C)CO)C[C@@H](C)[C@@H](CN(C)C(=O)Nc1ccc(C(F)(F)F)cc1)O2	inactive	inactive	inactive
Cc1noc(C)c1NC(=O)N(C)C[C@H]1Oc2c(NC(=O)Nc3cccc4ccccc34)cccc2C(=O)N([C@H](C)CO)C[C@@H]1C	inactive	inactive	inactive
COc1ccc(C#Cc2ccc3c(c2)O[C@H](CN(C)C(C)=O)[C@H](C)CN([C@H](C)CO)S3(=O)=O)cc1	inactive	inactive	inactive
CCNC(=O)[C@H]1[C@H](CO)[C@H]2Cn3c(ccc(C4=CCCC4)c3=O)[C@@H]1N2S(=O)(=O)c1cn(C)cn1	inactive	inactive	inactive
Cl.N[C@H](Cc1ccccc1)C(=O)O	inactive	inactive	inactive
C[C@@H]1CN([C@H](C)CO)C(=O)c2cc(NC(=O)Nc3ccc(F)cc3)ccc2O[C@@H](C)CCCCO[C@@H]1CN(C)Cc1ccncc1	inactive	inactive	inactive
CCS(=O)(=O)N[C@@H]1C=C[C@H](CC(=O)NCc2ccccn2)O[C@@H]1CO	inactive	inactive	inactive
